Data: US5480971A, “Peralkylated oligopeptide mixtures” (Houghten Pharmaceuticals, Inc., priority 1994, dated 1996)
Not every detail of the peptide structures is certain; ends, links or a residue may be inferred. Square brackets hold non-standard residues; d marks the D form. Peptide text beside a SMILES is read from it. * marks the point of attachment. X1 = C[N+](C)(C)[C@@H](Cc1ccccc1)C(=O)*; X2 = CC(C)C[C@@H](C(=O)*)[N+](C)(C)C; NMeF = CN[C@@H](Cc1ccccc1)C(=O)O; NMeI = CC[C@H](C)[C@H](NC)C(=O)O

Legend:
[1] = tested on: Staphylococcus aureus (ATCC 29213); settings: for S. aureus IC50: Example 8, individual peptides; for IC50 Value: Table 4, average results; for MIC Value: Table 4, minimum concentration needed to inhibit about 100 percent bacterial growth
Experimental: Concentrations of those 5X permethylated peptide mixtures that inhibited cellular growth by 50 percent (IC50) values were determined.
This culture was reinoculated and incubated at 37° C. to reach the exponential phase of bacterial growth; i.e., a final bacterial suspension containing about 10^5 to 5×10^5 colony-forming units (CFU)/ml. The concentration of cells was established by plating 100 μl of different dilutions of the culture solution (e.g., 10^-2, 10^-3 and 10^-4) onto solid agar plates. Following an overnight (about 18 hours) incubation at 37° C., the CFU thus formed were counted on each agar plate.
96-Well tissue culture plates were utilized, with eight wells per plate containing only medium as control blanks, whereas eight other wells contained medium plus cells as a positive growth control. These controls were used to detect possible medium contamination and to provide a measure of uninhibited growth of the microorganisms.
For determination of IC50 values (concentrations necessary to inhibit 50 percent growth of bacteria), peralkylated oligopeptide sets were added to the bacterial suspension at concentrations noted before. The plates were incubated overnight (about 18 hours) at 37° C., and the optical density (OD) determined at 620 nm after different times of incubation. IC50 values were then determined from the OD data.
Assays using S. aureus were carried out as described before. […] To initiate the exponential phase of bacterial growth prior to the assay, a sample of bacteria grown overnight (about 18 hours) at 37° C. in cation-adjusted Mueller Hinton broth (CAMM, for E. coli and S. aureus--Becton Dickinson Microbiology Systems, Cockeysville, Md.), or Brain Heart Infusion broth (BHI, for S. sanguis), was reinoculated in a 2X broth and incubated at 37° C. MRSA was grown at 35° C. in cation-adjusted MH broth in a similar manner. Prior to the assay, two colonies of newly grown C. albicans culture were inoculated in 5ml of phosphate buffer saline (PBS-35mM phosphate buffer, 0.15M NaCl-pH 7.0), and diluted in yeast medium broth. The bacteria and yeast suspensions were adjusted turbidimetrically so that a final concentration of 10^5 to 5×10^5 colony-forming units (CFU)/ml was used in all assays.
The plates were then incubated overnight at 37° C. […] The concentration necessary to inhibit 50 percent bacterial growth (IC50) was then calculated using the software program […] (ISI, San Diego, Calif.). […] In a similar manner, the plates containing C. albicans suspension were incubated for 48 hours at 30° C.

[2] = tested on: Streptococcus sangus ATCC 10566; assay: Assays against S. sanguis (growth inhibition); type: cell-based, Streptococcus sanguis; settings: for MIC Value: Table 5; for IC50: Table 5, average results; for S. sanguis IC50 / S. sanguis MIC: Table 6
Experimental: The permethylated amino acid and peptides were screened against S. aureus and Streptoccus sanguis, as described below, and IC50 and MIC (minimum inhibitory concentration; minimum concentration needed to inhibit about 100 percent bacterial growth) values were determined. […]
(§1) Assays using S. aureus were carried out as described before. Methicillin-resistant Staphylococcus aureus (MRSA) ATCC 33591, Streptococcus sangus ATCC 10566, Escherichia coli ATCC 25922 and Candida albicans ATCC 10231 were used in the bioassays (ATCC, Rockville, Md.). To initiate the exponential phase of bacterial growth prior to the assay, a sample of bacteria grown overnight (about 18 hours) at 37° C. in cation-adjusted Mueller Hinton broth (CAMM, for E. coli and S. aureus--Becton Dickinson Microbiology Systems, Cockeysville, Md.), or Brain Heart Infusion broth (BHI, for S. sanguis), was reinoculated in a 2X broth and incubated at 37° C. MRSA was grown at 35° C. in cation-adjusted MH broth in a similar manner. Prior to the assay, two colonies of newly grown C. albicans culture were inoculated in 5ml of phosphate buffer saline (PBS-35mM phosphate buffer, 0.15M NaCl-pH 7.0), and diluted in yeast medium broth. The bacteria and yeast suspensions were adjusted turbidimetrically so that a final concentration of 10^5 to 5×10^5 colony-forming units (CFU)/ml was used in all assays.
(§2) The assays were carried out in 96-well tissue culture plates (Costar, Pleasanton, Calif.) as described in Blondelie et al., Biochemistry, 31:12688-12694 (1992), incorporated herein by reference. In brief, the bacterial suspension was added to an equal volume of the mixture of permeythylated compounds diluted in H2 O at concentrations derived from serial two-fold dilutions varying from 2500 μg/ml to 1 μg/ml. The plates were then incubated overnight at 37° C. The relative percent growth found for each compound (or mixture of compounds) was then determined by the optical density at 620 nm (OD620) using a Titertek Multiskan Plus apparatus (Flow Laboratories, McLean, Va.). The concentration necessary to inhibit 50 percent bacterial growth (IC50) was then calculated using the software program […] (ISI, San Diego, Calif.). […] In a similar manner, the plates containing C. albicans suspension were incubated for 48 hours at 30° C.

[3] = tested on: Methicillin-resistant Staphylococcus aureus (MRSA) ATCC 33591; assay: Antimicrobial activity against MRSA (growth inhibition); type: cell-based; settings: for MRSA MIC: no change in OD620 between time 0 and 21 hours
Experimental: as §1, §2

[4] = Solubility in water / aqueous media; type: physicochemical; settings: water containing 10 volume percent DMSO at 1 mg/ml

## CNC(=O)[C@H](Cc1ccccc1)N(C)C(=O)[C@H](Cc1ccccc1)N(C)C(=O)[C@H](Cc1ccccc1)N(C)C(=O)[C@H](Cc1ccccc1)N(C)C(=O)[C@H](Cc1ccccc1)N(C)C(=O)[C@H](Cc1ccccc1)[N+](C)(C)C [PerA-FFFFFF, PerM-PhePhePhePhePhePhe] (X1-[NMeF][NMeF][NMeF][NMeF][NMeF]-NHMe)
[1]
  S. aureus IC50: 7 µg/mL
  IC50 Value: 7 µM
  MIC Value: 11 to 15 µM
[2]
  MIC Value: 7 to 8 µM
  IC50: 5 µM
  S. sanguis IC50: 9 µg/mL
  S. sanguis MIC: 15 to 20 µg/mL
[3]
  MRSA IC50: 7 µg/mL
  MRSA MIC: 8 to 10 µg/mL

## CC(C)C[C@@H](C(=O)NCc1ccccc1)N(Cc1ccccc1)C(=O)[C@H](Cc1ccccc1)N(Cc1ccccc1)C(=O)CN(Cc1ccccc1)C(=O)CN [perbenzylated GlyGlyPheLeu]
[4]
  appearance in water: formed an opaque dispersion

## CC[C@H](C)[C@@H](C(=O)N(C)[C@@H](Cc1ccccc1)C(=O)N(C)[C@@H](Cc1ccccc1)C(=O)N(C)[C@@H](Cc1ccccc1)C(=O)NC)N(C)C(=O)[C@H](Cc1ccccc1)N(C)C(=O)[C@H](CC(C)C)[N+](C)(C)C [PerM-LFIFFF, PerM-LeuPheIlePhePhePhe] (X2-[NMeF][NMeI][NMeF][NMeF][NMeF]-NHMe)
[1]
  S. aureus IC50: 6 µg/mL
[2]
  S. sanguis IC50: 1.7 µg/mL
  S. sanguis MIC: 3 to 5 µg/mL
[3]
  MRSA IC50: 7 µg/mL
  MRSA MIC: 8 to 10 µg/mL

## CNC(=O)[C@H](Cc1ccccc1)N(C)C(=O)[C@H](Cc1ccccc1)N(C)C(=O)[C@H](Cc1ccccc1)N(C)C(=O)[C@H](Cc1ccccc1)N(C)C(=O)[C@H](Cc1ccccc1)N(C)C(=O)[C@H](Cc1ccccc1)N(C)C(=O)[C@H](Cc1ccccc1)[N+](C)(C)C [PerA-FFFFFFF, PerM-PhePhePhePhePhePhePhe] (X1-[NMeF][NMeF][NMeF][NMeF][NMeF][NMeF]-NHMe)
[1]
  IC50 Value: 2.5 µM
  MIC Value: 3 to 4 µM
[2]
  MIC Value: 3 to 4 µM
  IC50: 2.3 µM

## CC[C@H](C)[C@@H](C(=O)N(C)[C@@H](Cc1ccccc1)C(=O)N(C)[C@@H](Cc1ccccc1)C(=O)N(C)[C@@H](Cc1ccccc1)C(=O)NC)N(C)C(=O)[C@H](Cc1ccccc1)N(C)C(=O)[C@H](Cc1ccccc1)[N+](C)(C)C [PerM-FFIFFF, PerM-PhePheIlePhePhePhe] (X1-[NMeF][NMeI][NMeF][NMeF][NMeF]-NHMe)
[1]
  S. aureus IC50: 6 µg/mL
[2]
  S. sanguis IC50: 14 µg/mL
  S. sanguis MIC: 20 to 40 µg/mL
[3]
  MRSA IC50: 7 µg/mL
  MRSA MIC: 8 to 10 µg/mL

## CNC(=O)[C@H](Cc1ccccc1)N(C)C(=O)[C@H](Cc1ccccc1)N(C)C(=O)[C@H](Cc1ccccc1)N(C)C(=O)[C@H](Cc1ccccc1)N(C)C(=O)[C@H](Cc1ccccc1)[N+](C)(C)C [PerA-FFFFF, PerM-PhePhePhePhePhe] (X1-[NMeF][NMeF][NMeF][NMeF]-NHMe)
[1]
  IC50 Value: 19 µM
  MIC Value: 21 to 31 µM
[2]
  MIC Value: 25 to 30 µM
  IC50: 20 µM

## CNC(=O)[C@H](Cc1ccccc1)N(C)C(=O)[C@H](Cc1ccccc1)N(C)C(=O)[C@H](Cc1ccccc1)N(C)C(=O)[C@H](Cc1ccccc1)[N+](C)(C)C [PerA-FFFF]
[1]
  IC50 Value: 116 µM
  MIC Value: 250 to 500 µM
[2]
  MIC Value: 125 to 250 µM
  IC50: 85 µM

## CNC(=O)[C@H](Cc1ccccc1)N(C)C(=O)[C@H](Cc1ccccc1)N(C)C(=O)[C@H](Cc1ccccc1)[N+](C)(C)C [PerA-FFF]
[1]
  IC50 Value: 288 µM
  MIC Value: > 500 µM
[2]
  MIC Value: > 500 µM
  IC50: 446 µM

## CNC(=O)[C@H](Cc1ccccc1)N(C)C(=O)[C@H](Cc1ccccc1)N(C)C(=O)[C@H](Cc1ccccc1)N(C)C(=O)[C@H](Cc1ccccc1)N(C)C(=O)[C@H](Cc1ccccc1)N(C)C(=O)[C@H](CC(C)C)[N+](C)(C)C [PerM-LFFFFF, PerM-LeuPhePhePhePhePhe] (X2-[NMeF][NMeF][NMeF][NMeF][NMeF]-NHMe)
[1]
  S. aureus IC50: 10 µg/mL
[1]; no change in OD620 between time 0 and 21 hours
  S. aureus MIC: 21 to 31 µg/mL
[2]
  S. sanguis IC50: 14 µg/mL
  S. sanguis MIC: 20 to 40 µg/mL
[3]
  MRSA IC50: 8 µg/mL
  MRSA MIC: 9 to 10 µg/mL

## CNC(=O)[C@H](Cc1ccccc1)N(C)C(=O)[C@H](Cc1ccccc1)N(C)C(=O)[C@H](Cc1ccccc1)N(C)C(=O)[C@H](Cc1ccccc1)N(C)C(=O)[C@H](Cc1ccccc1)N(C)C(=O)[C@H](Cc1ccccc1)N(C)C(=O)[C@H](Cc1ccccc1)N(C)C(=O)[C@H](Cc1ccccc1)[N+](C)(C)C (X1-[NMeF][NMeF][NMeF][NMeF][NMeF][NMeF][NMeF]-NHMe)
[1]
  IC50 Value: 5 µM
  MIC Value: 6 to 8 µM
[2]
  MIC Value: 8 to 9 µM
  IC50: 7 µM
